# Experimental data from patent publication US20180030098A1 (NAVIGO PROTEINS, published 2018).
# Biological target: T1, Recombinant human EGFR-Fc Chimera (R&D Systems, catalog no. 344-ER-050) (human, UniProt P00533 25-645)
# T1 construct: range 1-645; Bought reagent; Immobilised on the CM5 chip for SPR; also called hEGFR-Fc; not shown: Fc region of human IgG1, fused at the C-terminus
# Assay: SPR (Biacore) on immobilised hEGFR-Fc
row,Binder,Kd [µM]
1,"139864 (designed binder, also called Affilin 139864; clone 139864) Affilin of two ubiquitin moieties: MQIFVHTPTGKTITLEVEPSDTIENVKAKIQDKEGIPPDQQRLIWAGKQLEDGRTLSDYNIRNPDILHLVLRLRAAGIGMQIFVHTMTGKTITLEVEPSDTIENVKAKIQDKEGIPPDQQRLIWAGKQLEDGRTLSDYNIGAGTMLHLVLRLRAA",0.536
2,"139959 (designed binder, also called Affilin 139959) Affilin of two ubiquitin moieties: MQIFVHTMTGKTITLEVEPSDTIENVKAKIQDKEGIPPDQQRLIWAGKQLEDGRTLSDYNIRNPDILHLVLRLRAAGIGMQIFVVTFTGKTITLEVEPSDTIENVKAKIQDKEGIPPDQQRLIWAGKQLEDGRTLSDYNITQWTPLHLVLRLRAA",0.566
3,"139901 (designed binder, also called Affilin 139901) Affilin of two ubiquitin moieties: MQIFVHTDTGKTITLEVEPSDTIENVKAKIQDKEGIPPDQQRLIWAGKQLEDGRTLSDYNIRHPDILHLVLRLRAAGIGMQIFVNTFTGKTITLEVEPSDTIENVKAKIQDKEGIPPDQQRLIWAGKQLEDGRTLSDYNIYNGMFLHLVLRLRAA",0.061
4,"140094 (designed binder, also called Affilin 140094) Affilin of two ubiquitin moieties: MQIFVHTQTGKTITLEVEPSDTIENVKAKIQDKEGIPPDQQRLIWAGKQLEDGRTLSDYNITSPDILHLVLRLRAAGIGMQIFVITSTGKTITLEVEPSDTIENVKAKIQDKEGIPPDQQRLIWAGKQLEDGRTLSDYNIPRAASLHLVLRLRAA",0.65
5,SEQ ID NO 21 (designed binder) MQIFVKTLTPPSMNWGKTITLEVEPSDTIENVKAKIQDKEGIPPDQQRLIWAGKQLEDGRTLSDYNIQNPDILHLVLRLRAA,0.08
6,"Affilin 139756 (designed binder, Ubiquitin mutein with PDI motif) MQIFVKTLTTWEPEYGKTITLEVEPSDTIENVKAKIQDKEGIPPDQQRLIWAGKQLEDGRTLSDYNISAPDILHLVLRLRAA",0.066
7,SEQ ID NO 22 (designed binder) MQIFVKTLTMENYWGGKTITLEVEPSDTIENVKAKIQDKEGIPPDQQRLIWAGKQLEDGRTLSDYNIQNPDILHLVLRLRAA,0.086
8,SEQ ID NO 24 (designed binder) MQIFVKTLTEPDRQYGKTITLEVEPSDTIENVKAKIQDKEGIPPDQQRLIWAGKQLEDGRTLSDYNIQNPDILHLVLRLRAA,0.127
9,SEQ ID NO 26 (designed binder) MQIFVKTLTYPQREYGKTITLEVEPSDTIENVKAKIQDKEGIPPDQQRLIWAGKQLEDGRTLSDYNIQNPDILHLVLRLRAA,0.143
10,"Affilin 142232 (designed binder, Ubiquitin mutein with PDI motif and one further substitution in position 38) MQIFVKTLTWDPYQYGKTITLEVEPSDTIENVKAKIQDKEGIPSDQQRLIWAGKQLEDGRTLSDYNIQNPDILHLVLRLRAA",0.169
11,SEQ ID NO 23 (designed binder) MQIFVKTLTEPTMQHGKTITLEVEPSDTIENVKAKIQDKEGIPPDQQRLIWAGKQLEDGRTLSDYNIQNPDILHLVLRLRAA,0.09

# The next lines start with the values.
row,Kd [µM],Binder
1,0.064,SEQ ID NO 35 (designed binder) MQIFVKTLTQETYYYGKTITLEVEPSDTIENVKAKIQDKEGIPPDQQRLIWAGKQLEDGRTLSDYNIRHPDILHLVLRLRAA
2,0.176,SEQ ID NO 46 (designed binder) MQIFVKTLTAGDYYNGKTITLEVEPSDTIENVKAKIQDKEGIPPDQQRLIWAGKQLEDGRTLSDYNIRNPDILHLVLRLRAA
3,0.106,SEQ ID NO 43 (designed binder) MQIFVKTLTDRDMYQGKTITLEVEPSDTIENVKAKIQDKEGIPPDQQRLIWAGKQLEDGRTLSDYNIRNPDILHLVLRLRAA
4,0.162,SEQ ID NO 28 (designed binder) MQIFVKTLTPNMEYHGKTITLEVEPSDTIENVKAKIQDKEGIPPDQQRLIWAGKQLEDGRTLSDYNIQNPDILHLVLRLRAA
5,0.16,SEQ ID NO 27 (designed binder) MQIFVKTLTPQDMHQGKTITLEVEPSDTIENVKAKIQDKEGIPPDQQRLIWAGKQLEDGRTLSDYNIQNPDILHLVLRLRAA
6,0.24,SEQ ID NO 47 (designed binder) MQIFVKTLTPYEQGYGKTITLEVEPSDTIENVKAKIQDKEGIPPDQQRLIWAGKQLEDGRTLSDYNIRNPDILHLVLRLRAA
7,0.1,SEQ ID NO 42 (designed binder) MQIFVKTLTQMSDMRGKTITLEVEPSDTIENVKAKIQDKEGIPPDQQRLIWAGKQLEDGRTLSDYNIRNPDILHLVLRLRAA
8,0.091,SEQ ID NO 36 (designed binder) MQIFVKTLTQQSEYSGKTITLEVEPSDTIENVKAKIQDKEGIPPDQQRLIWAGKQLEDGRTLSDYNIRHPDILHLVLRLRAA
9,0.1,SEQ ID NO 37 (designed binder) MQIFVKTLTEYQAPNGKTITLEVEPSDTIENVKAKIQDKEGIPPDQQRLIWAGKQLEDGRTLSDYNIRHPDILHLVLRLRAA
10,0.174,SEQ ID NO 30 (designed binder) MQIFVKTLTPQDMHQGKTITLEVEPSDTIENVKAKIQDKEGIPPDQQRLIWAGKQLEDGRTLSDYNIQNPDILHLVLRLRAA
11,0.413,SEQ ID NO 31 (designed binder) MQIFVKTLTQWEEYSGKTITLEVEPSDTIENVKAKIQDKEGIPPDQQRLIWAGKQLEDGRTLSDYNIQNPDILHLVLRLRAA
12,0.244,SEQ ID NO 48 (designed binder) MQIFVKTLTEHEKWAGKTITLEVEPSDTIENVKAKIQDKEGIPPDQQRLIWAGKQLEDGRTLSDYNIRNPDILHLVLRLRAA
13,0.009,SEQ ID NO 52 (designed binder) MQIFVKTLTGGDHGYGKTITLEVEPSDTIENVKAKIQDKEGIPPDQQRLIWAGKQLEDGRTLSDYNIVNPDILHLVLRLRAA
14,0.703,SEQ ID NO 32 (designed binder) MQIFVKTLTDDKGYDGKTITLEVEPSDTIENVKAKIQDKEGIPPDQQRLIWAGKQLEDGRTLSDYNIQNPDILHLVLRLRAA
15,0.14,SEQ ID NO 45 (designed binder) MQIFVKTLTDQPDWYGKTITLEVEPSDTIENVKAKIQDKEGIPPDQQRLIWAGKQLEDGRTLSDYNIRNPDILHLVLRLRAA
16,0.048,SEQ ID NO 40 (designed binder) MQIFVKTLTQSDPHYGKTITLEVEPSDTIENVKAKIQDKEGIPPDQQRLIWAGKQLEDGRTLSDYNIRNPDILHLVLRLRAA
17,0.18,SEQ ID NO 38 (designed binder) MQIFVKTLTEQSQYGGKTITLEVEPSDTIENVKAKIQDKEGIPPDQQRLIWAGKQLEDGRTLSDYNIRHPDILHLVLRLRAA
18,0.07,SEQ ID NO 41 (designed binder) MQIFVKTLTAPQDMYGKTITLEVEPSDTIENVKAKIQDKEGIPPDQQRLIWAGKQLEDGRTLSDYNIRNPDILHLVLRLRAA
19,0.126,SEQ ID NO 44 (designed binder) MQIFVKTLTSDYYMNGKTITLEVEPSDTIENVKAKIQDKEGIPPDQQRLIWAGKQLEDGRTLSDYNIRNPDILHLVLRLRAA

# Biological target: T1, Recombinant human EGFR-Fc Chimera (R&D …)
# Assay: SPR (Biacore) on immobilised hEGFR-Fc
# Remark: another data set of the same source
row,Kd [µM],Binder
1,0.061,"Affilin 139989 (designed binder, Affilin of two ubiquitin moieties, without PDI motif) MQIFVVTMTGKTITLEVEPSDTIENVKAKIQDKEGIPPDQQRLIWAGKQLEDGRTLSDYNIEWYTNLHLVLRLRAAGIGMQIFVWTTTGKTITLEVEPSDTIENVKAKIQDKEGIPPDQQRLIWAGKQLEDGRTLSDYNILHGQWLHLVLRLRAA"
2,0.473,"139907 (designed binder, also called Affilin 139907) Affilin of two ubiquitin moieties: MQIFVHTWTGKTITLEVEPSDTIENVKAKIQDKEGIPPDQQRLIWAGKQLEDGRTLSDYNISHPDILHLVLRLRAAGIGMQIFVVTTTGKTITLEVEPSDTIENVKAKIQDKEGIPPDQQRLIWAGKQLEDGRTLSDYNIANRARLHLVLRLRAA"
3,0.66,"140077 (designed binder, also called Affilin 140077) Affilin of two ubiquitin moieties: MQIFVHTYTGKTITLEVEPSDTIENVKAKIQDKEGIPPDQQRLIWAGKQLEDGRTLSDYNIRHPDILHLVLRLRAAGIGMQIFVHTNTGKTITLEVEPSDTIENVKAKIQDKEGIPPDQQRLIWAGKQLEDGRTLSDYNIGARTSLHLVLRLRAA"
4,0.45,"139961 (designed binder, also called Affilin 139961) Affilin of two ubiquitin moieties: MQIFVHTTTGKTITLEVEPSDTIENVKAKIQDKEGIPPDQQRLIWAGKQLEDGRTLSDYNIRHPDILHLVLRLRAAGIGMQIFVSTFTGKTITLEVEPSDTIENVKAKIQDKEGIPPDQQRLIWAGKQLEDGRTLSDYNIVAHNMLHLVLRLRAA"
5,0.574,"139880 (designed binder, also called Affilin 139880) Affilin of two ubiquitin moieties: MQIFVHTWTGKTITLEVEPSDTIENVKAKIQDKEGIPPDQQRLIWAGKQLEDGRTLSDYNIRHPDILHLVLRLRAAGIGMQIFVRTPTGKTITLEVEPSDTIENVKAKIQDKEGIPPDQQRLIWAGKQLEDGRTLSDYNIHRSAMLHLVLRLRAA"
6,0.532,"139923 (designed binder, additional exchanges printed: F4S,V5L,I13L,V17L,2. moiety: V70L; also called Affilin 139923) Affilin of two ubiquitin moieties: MQISLYTPTGKTLTLELEPSDTIENVKAKIQDKEGIPPDQQRLIWAGKQLEDGRTLSDYNIRHPDILHLVLRLRAAGIGMQIFVDTYTGKTITLEVEPSDTIENVKAKIQDKEGIPPDQQRLIWAGKQLEDGRTLSDYNIGYEPALHLLLRLRAA"
